{"source": "PubChem BioAssay AID1346428", "about": "(National Center for Advancing Translational Sciences (NCATS), 2018)", "note": "Out of some 48,000 compounds screened, about 1,200 (2.5%) were called active. Another 2% or so got no clear call; they are omitted.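 How the source made its calls: active means activation of at least 60% and not above a set upper limit (about 1 call in 100 departs from these limits); inconclusive means activation of 40% to 60%, or above that upper limit; inactive means activation under 40%.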 Some of the results follow."}
{"molecular_target": "Probable G-protein coupled receptor 32 (Homo sapiens) (UniProt O75388)", "sequence (O75388 whole entry, looked up)": "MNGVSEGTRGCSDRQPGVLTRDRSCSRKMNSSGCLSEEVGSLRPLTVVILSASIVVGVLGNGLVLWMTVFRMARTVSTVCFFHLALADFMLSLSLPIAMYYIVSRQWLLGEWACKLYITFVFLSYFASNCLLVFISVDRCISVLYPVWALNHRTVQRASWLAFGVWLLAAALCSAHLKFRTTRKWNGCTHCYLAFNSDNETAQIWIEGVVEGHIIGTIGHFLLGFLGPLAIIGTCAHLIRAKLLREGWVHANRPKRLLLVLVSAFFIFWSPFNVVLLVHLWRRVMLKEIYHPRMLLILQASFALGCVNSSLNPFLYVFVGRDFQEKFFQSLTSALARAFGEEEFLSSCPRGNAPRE", "test": "qHTS for Agonists of Human Resolvin D1 Receptor DRV1; further: 0% is about no effect", "settings": "CHO-K1 GPR32 beta-arrestin PathHunter luminescence, 90 min; at 76.9 µM; hits give high values; zero percent set by DMSO-only wells", "outline": "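Readings come from a cell-based beta-arrestin complementation format: CHO-K1 GPR32 stable cells (2,500/well) treated 90 min with compounds, then beta-Gal substrate added for 1 h before chemiluminescence imaging.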"}
{"compound": "CCOc1ccccc1NC(=O)Cn1c(=O)n(-c2ccc(F)cc2)c(=O)c2sc3ccccc3c21", "activation": "inactive: 11.8%"}
{"compound": "Cc1ccc2nc(-c3cc(NC(=O)/C=C/c4ccccc4)ccc3Cl)oc2c1", "activation": "inactive: -4.87%"}
{"compound": "O=C(Nc1cccc(OCc2cc(=O)n3c4c(sc3n2)CCCC4)c1)c1ccc(F)cc1", "activation": "inactive: 22%"}
{"compound": "Cc1ccccc1-c1noc(CCC(=O)Nc2cccc(C)c2C)n1", "activation": "inactive: -11%"}
{"compound": "COc1ccc(C(=O)Nc2ccc3nc(N4CCC(C)CC4)cc(C)c3c2)cc1", "activation": "inactive: 26.3%"}
{"compound": "COc1cc(Cl)c(C)cc1NC(=O)c1cn(C2CCCC2)c(=O)c2c1c1ccccc1n2C", "activation": "inactive: -2.92%"}
{"compound": "O=C(c1cccc(Cl)c1)N1CCN(CCc2ccncc2)CC1", "activation": "inactive: 16.7%"}
{"compound": "CCOc1ccc(-c2nnc(SCC(=O)NCCc3ccc(OC)c(OC)c3)nc2-c2ccc(OCC)cc2)cc1", "activation": "inactive: 3.31%"}
{"compound": "COc1ccc(Cl)cc1-n1c(/C=C/c2cccc3ccccc23)nc2ccccc2c1=O", "activation": "inactive: -16.9%"}
{"compound": "COc1cc(C(=O)NS(=O)(=O)c2ccccc2C)ccc1Cc1cn(C)c2ccc(NC(=O)OC3CCCC3)cc12", "activation": "inactive: 46%"}
{"compound": "CCOCCCNC(=O)C(Cc1ccccc1)NS(=O)(=O)c1ccc2c(c1)c(=O)n(C)c(=O)n2C", "note": "(stereo not drawn)", "activation": "inactive: -1.46%"}
{"compound": "COc1ccc(-c2nc(CSc3nncn4c3cc3occc34)c(C)o2)cc1", "activation": "inactive: -19.2%"}
{"compound": "COc1cccc(Cn2c(CNC(=O)Cc3cccc(C)c3)nc3cccnc32)c1", "activation": "inactive: -12.8%"}
{"compound": "Oc1ccc(/C=C/c2ccc(/C=C/c3ccc(O)cc3)c(Br)c2)cc1", "activation": "inactive: -3.45%"}
{"compound": "Cc1ccc(NC(=O)c2cccc3c2C(=O)N(C2CCCCC2)C3)c(C)c1", "activation": "inactive: -15.4%"}
{"compound": "COc1ccc(C2=C(C)C(=NCCCN3CCN(c4cc(C)ccc4C)CC3)NS2(=O)=O)cc1", "activation": "inactive: 38%"}
{"compound": "COc1ccc(N(CC(=O)Nc2cccc(Cl)c2C)S(=O)(=O)c2c(C)nn(C)c2C)cc1", "activation": "inactive: 0.51%"}
{"compound": "COc1ccccc1-c1nc2c(c(SCC(=O)Nc3ccc(C)c(C)c3)n1)Cc1c(CO)cnc(C)c1O2", "activation": "inactive: -11.2%"}
{"compound": "Cc1ccccc1NC(=O)Cn1c(=O)oc2cc(Br)ccc21", "activation": "inactive: 7.74%"}
{"compound": "O=C(c1cc2c(s1)-c1ccccc1OC2)N1CCN(c2ccccc2F)CC1", "activation": "inactive: -12%"}
{"compound": "Cc1c(C)n(C)c2ccc(C(=O)NCCCN3CCCCC3C)cc12", "note": "(stereo not drawn)", "activation": "inactive: -6.67%"}
{"compound": "CCOC(=O)C1CCCN(c2cc(C)nc3c(-c4ccccc4OC)c(C)nn23)C1", "note": "(stereo not drawn)", "activation": "inactive: -18.8%"}
{"compound": "CCc1c(C)sc(NC(=O)c2cc(-c3cccc(Cl)c3)on2)c1C#N", "activation": "inactive: -1.19%"}
{"compound": "CC1=C(C(=O)OC(C)C)C(c2cccc([N+](=O)[O-])c2)C(C(=O)OC2CN(C(c3ccccc3)c3ccccc3)C2)=C(N)N1", "note": "(stereo not drawn)", "activation": "inactive: 6.13%"}
{"compound": "Cc1ccc(C)c(NC(=O)Cn2cc(C(=O)c3ccco3)c3ccccc32)c1", "activation": "inactive: 3%"}
{"compound": "CCCCN(CC)CCCNC(=O)c1nn(C)c2c1CS(=O)(=O)c1ccccc1-2", "activation": "inactive: 0.525%"}
{"compound": "CCCCCOc1c(Cl)cc(C(=O)N(Cc2ccc(C)o2)C2CCS(=O)(=O)C2)cc1Cl", "note": "(stereo not drawn)", "activation": "inactive: -29.3%"}
{"compound": "COc1ccc(C)c2sc(N(Cc3cccnc3)C(=O)C3CCCCC3)nc12", "activation": "inactive: -10.6%"}
{"compound": "CCCN(CCC)CCCNC(=O)C1CCN(S(=O)(=O)CC)CC1", "activation": "inactive: -6.32%"}
{"compound": "COc1ccc(C)cc1NC(=O)c1c(C)oc2ncn(CC(C)C)c(=O)c12", "activation": "inactive: -24.2%"}
{"compound": "CCCn1cc(S(=O)(=O)c2ccccc2)c(=O)c2cc(F)c(N3CCCC(C)C3)cc21", "note": "(stereo not drawn)", "activation": "inactive: -9.69%"}
{"compound": "CCOC(=O)c1ccc(N2C(=O)c3n[nH]c(-c4ccco4)c3C2c2ccc(O)cc2)cc1", "note": "(stereo not drawn)", "activation": "inactive: 33.5%"}
{"compound": "CCOC(=O)Cn1c(=O)n(C2CCCCC2)c2nc(-c3cccc(F)c3)nc(C(N)=O)c21", "activation": "inactive: -2.27%"}
{"compound": "Cc1cc(C2CCCCC2)n(O)c(=O)c1", "activation": "active: 77.3%"}
{"compound": "CC1=C(C(=O)Nc2ccccc2)C(c2cccnc2)n2nc(SCc3ccccc3Cl)nc2N1", "note": "(stereo not drawn)", "activation": "inactive: -2.84%"}
{"compound": "Cc1ccc(S(=O)(=O)CC(=O)Nc2sc3c(c2C#N)CCCC3)cc1", "activation": "inactive: 13.3%"}
{"compound": "CCn1cc(CCC(=O)NCc2ccccc2OC)c2ccccc21", "activation": "inactive: -24.4%"}
{"compound": "Cc1ccc(CSCC(=O)N2CCN(c3ccccc3F)CC2)cc1", "activation": "inactive: -22.4%"}
{"compound": "Cc1ccc(S(=O)(=O)c2cc3cc(C(=O)O)ccc3oc2=O)cc1", "activation": "inactive: -1.27%"}
{"compound": "CCN[C@@H]1C[C@H](N)[C@@H](OC2OC(CN)=CCC2N)[C@H](O)[C@H]1O[C@H]1OC[C@](C)(O)[C@H](NC)[C@H]1O", "note": "(stereo partly drawn)", "activation": "inactive: 8.07%"}
{"compound": "Cc1ccc(C)c(CN2C(=O)c3ccccc3S(=O)(=O)c3ccc(C(=O)N4CCN(c5ccccc5)CC4)cc32)c1", "activation": "inactive: -9.55%"}
{"compound": "COc1ccc(NC(=O)c2sc3nc(-c4ccc(OC)cc4)cc(C(F)(F)F)c3c2N)cc1", "activation": "inactive: 0.683%"}
{"compound": "C#CCSc1nc2sc3c(c2c(=O)n1Cc1ccccc1)CCCC3", "activation": "inactive: 7.01%"}
{"compound": "COc1ccccc1OCCSc1nc2ccccc2n1CC(=O)N1CCOCC1", "activation": "inactive: -7.38%"}
{"compound": "Cc1n[nH]c(C)c1S(=O)(=O)N(CC(=O)Nc1ccc(C(F)(F)F)cc1)c1ccc(C(C)C)cc1", "activation": "inactive: 12.4%"}
{"compound": "Cc1ccc(NC(=O)CCS(=O)(=O)c2cccc3nonc23)cc1Cl", "activation": "inactive: 4.66%"}
{"compound": "Cc1ccccc1Nc1c(-c2ccco2)nc2c(C)cccn12", "activation": "inactive: -26.2%"}
{"compound": "CCOC(=O)c1ccc(-n2c(C)nc3c(cnn3-c3ccc(Cl)cc3)c2=O)cc1", "activation": "inactive: 2.33%"}
{"compound": "CCOCCCNC(=O)c1[nH]c2cc(C)ccc2c1Sc1ccc(Cl)cc1", "activation": "inactive: -4.62%"}
{"compound": "Cc1cccc(NC(=O)Cn2c(=O)n(CCCS(=O)(=O)C3CCCCC3)c(=O)c3ccccc32)c1", "activation": "inactive: 20.9%"}
{"compound": "CCCCN(CCCC)CCNC(=O)Cn1nc(CC)n2c(cc3sc(C)cc32)c1=O", "activation": "inactive: -4.86%"}
{"compound": "O=S1(=O)c2ccccc2N(Cc2cccc(C(F)(F)F)c2)c2ccccc21", "activation": "inactive: -58.8%"}
{"compound": "Cc1ccc(-c2onc(C)c2C)cc1S(=O)(=O)N1c2ccccc2CC1C", "note": "(stereo not drawn)", "activation": "inactive: -15.7%"}
{"compound": "COc1ccc(C(=O)N2c3ccccc3C(C)(c3ccc(Cl)cc3)CC2(C)C)cc1", "note": "(stereo not drawn)", "activation": "inactive: -31.3%"}
{"compound": "COc1ccc(CCNC(=O)c2c(O)nc3c(C)cccn3c2=O)cc1", "activation": "inactive: 2.39%"}
{"compound": "CCOCCc1nn2c(=O)cc(COC(=O)c3ccccc3NC(=O)C3CCCCC3)nc2s1", "activation": "inactive: -19.7%"}
{"compound": "CN(C)CCNC(=O)Cn1c(=O)c2cccn2c2ccc(F)cc21", "activation": "inactive: -8.42%"}
{"compound": "COc1cc(OC)c(N(C)C(=O)CCNC(=O)Cn2cnc3ccccc3c2=O)cc1Cl", "activation": "inactive: 17.9%"}
{"compound": "O=C(NCCn1cc(SCc2ccc(Cl)cc2)c2ccccc21)c1cccs1", "activation": "inactive: -13.3%"}
{"compound": "COc1cccc(-c2nc(SCC(=O)Nc3ccc4c(c3)OCCO4)c(-c3ccccc3)[nH]2)c1", "activation": "inactive: -21%"}
{"compound": "CCOc1ccc(CCNC(c2cccc(Cl)c2)c2nnc(-c3ccccc3)o2)cc1OCC", "note": "(stereo not drawn)", "activation": "inactive: -1.88%"}
{"compound": "Cc1coc2c(C)c3oc(=O)c(CCC(=O)NCCc4ccccc4)c(C)c3cc12", "activation": "inactive: -16.7%"}
{"compound": "Cc1nn(C(=O)c2ccc(Br)cc2)c(C)c1S(=O)(=O)N1CCOCC1", "activation": "inactive: -6.49%"}
{"compound": "CCc1ccc(-c2[nH]c3c(c2-c2sc(C)c(C(=O)OC)c2O)c(=O)[nH]c(=O)n3C)cc1", "activation": "inactive: -9.78%"}
{"compound": "CCCCN(CCCC)S(=O)(=O)c1ccc2oc(C(=O)NCc3ccc(C)cc3)c(C)c2c1", "activation": "inactive: -11.5%"}
{"compound": "COc1cccc(/C=C/c2nc(C#N)c(NCCc3ccc(OC)c(OC)c3)o2)c1", "activation": "inactive: 35.8%"}
{"compound": "COC(=O)c1ccc2c(c1)N(Cc1ccc(F)cc1)C(=O)c1ccccc1S2", "activation": "inactive: -4.65%"}
{"compound": "Cn1c(NCCO)nc2c1c(=O)n(Cc1cccc(F)c1)c(=O)n2C", "activation": "inactive: -68.9%"}
{"compound": "CCOc1ccc(CCNC(=O)c2cnc3c(-c4ccc(F)cc4)c(C)nn3c2C)cc1OCC", "activation": "inactive: -19.1%"}
{"compound": "O=C(CCCN1CCN(c2ccc(F)cc2)CC1)NC1c2ccccc2CSc2ccccc21", "note": "(stereo not drawn)", "activation": "inactive: 39.2%"}
{"compound": "Cc1ccc(NC(=O)Cn2c(=O)n(Cc3ccco3)c(=O)c3sc4ccccc4c32)cc1C", "activation": "inactive: -15%"}
{"compound": "COc1ccc2c(c1)sc1ncc(C(=O)NCc3ccc(OC(C)C)cc3)c(=O)n12", "activation": "inactive: -1.93%"}
{"compound": "O=C(NCCc1ccc(Cl)cc1)c1cnc2sc(N3CCCCC3)nn2c1=O", "activation": "inactive: -2.96%"}
{"compound": "COc1ccc(-c2cc(C(F)(F)F)nc(SCCC(=O)Nc3cc(C)ccc3O)n2)cc1", "activation": "inactive: 25.4%"}
{"compound": "Oc1c(C(c2ccc(Cl)cc2)N2CCC3(CC2)OCCO3)sc2nc(-c3ccco3)nn12", "note": "(stereo not drawn)", "activation": "inactive: 3.97%"}
{"compound": "CCOc1ccccc1NC(=O)CSc1nc2cc(OC)c(OC)cc2c2nc(-c3ccccc3)nn12", "activation": "inactive: 1.29%"}
{"compound": "CCn1c(=O)c(C(=O)Nc2ccc(C(C)=O)cc2)nc2ccccc21", "activation": "inactive: 34.7%"}
{"compound": "COc1cc(NC(=O)c2cccc3c2C(=O)N(C2CCCCC2)C3)cc(OC)c1", "activation": "inactive: 11.3%"}
{"compound": "O=C(Cn1c(=O)oc2ccccc21)Nc1ccc(C(=O)O)cc1", "activation": "inactive: -13.2%"}
{"compound": "CCOc1ccccc1NC(=O)n1ncc2cc(Cl)ccc21", "activation": "inactive: 8.09%"}
{"compound": "Cc1ccc(NC(=O)/C(C#N)=C/c2cc(C)n(-c3ccc(Br)cc3)c2C)cc1C", "activation": "active: 63%"}
{"compound": "Cc1ccc(CCNC(=O)c2ccc(CS(=O)(=O)c3ccc(Cl)cc3)o2)cc1", "activation": "inactive: 25.7%"}
{"compound": "COCCNC(=O)CCCN1C(=O)CCn2nc(-c3cccn3C)cc21", "activation": "inactive: -22%"}
